Binding signal data for 9 molecules are collected here from paper PMC9911399, “Two distinct binding modes provide the RNA-binding protein RbFox with extraordinary sequence specificity”.

Changes are numbered by the printed parent chain; changes in the protein carry UniProt numbers. The list shows a part of the results.

B1: UUUUAGG (DNA:RNA)
RNA: GGGAGACCGGAAUUCAGAUUGUCCUUUUAGGUUAAAUCCCGUCGUAGCCACCA
DNA 1: CAATCTGAATTCCGGTCTCCC
DNA 2: TGGTGGCTACGACGGGATT
B2: UUUCUUU (DNA:RNA)
RNA: B1 RNA with U28C, A29U, G30U, G31U
DNA 1: CAATCTGAATTCCGGTCTCCC
DNA 2: TGGTGGCTACGACGGGATT
B3: GACUACA (DNA:RNA)
RNA: B1 RNA with U25G, U26A, U27C, G30C, G31A
DNA 1: CAATCTGAATTCCGGTCTCCC
DNA 2: TGGTGGCTACGACGGGATT
B4: AACCUGU (DNA:RNA)
RNA: B1 RNA with U25A, U26A, U27C, U28C, A29U, G31U
DNA 1: CAATCTGAATTCCGGTCTCCC
DNA 2: TGGTGGCTACGACGGGATT
B5: UUCAGUU (DNA:RNA)
RNA: B1 RNA with U27C, U28A, A29G, G30U, G31U
DNA 1: CAATCTGAATTCCGGTCTCCC
DNA 2: TGGTGGCTACGACGGGATT
B6: ACACCCC (DNA:RNA)
RNA: GGGAGACCGGAAUUCAGAUUGUCCACACCCCUUAAAUCCCGUCGUAGCCACCA
DNA 1: CAATCTGAATTCCGGTCTCCC
DNA 2: TGGTGGCTACGACGGGATT
B7: ACUUUCU (DNA:RNA)
RNA: B6 RNA with A27U, C28U, C29U, C31U
DNA 1: CAATCTGAATTCCGGTCTCCC
DNA 2: TGGTGGCTACGACGGGATT
B8: AACGCGA (DNA:RNA)
RNA: B6 RNA with C26A, A27C, C28G, C30G, C31A
DNA 1: CAATCTGAATTCCGGTCTCCC
DNA 2: TGGTGGCTACGACGGGATT
B9: AGAAUGA (DNA:RNA)
RNA: B6 RNA with C26G, C28A, C29U, C30G, C31A
DNA 1: CAATCTGAATTCCGGTCTCCC
DNA 2: TGGTGGCTACGACGGGATT

The target of the assay is T1, RBFOX1 RRM RbFoxmut (Fox-RRM*) (Homo sapiens, UniProt Q9NWB1 109-208, R118D;E147R;N151S;E152T).
T1 sequence: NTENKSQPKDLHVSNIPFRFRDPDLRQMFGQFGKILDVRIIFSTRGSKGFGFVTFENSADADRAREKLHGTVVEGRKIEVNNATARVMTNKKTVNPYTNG
Nature of the assay: EMSA; HiTS-Eq, 1 nM pool, 10 min; buffer printed only for the single-RNA assays: 10 mM Tris pH 7.5, 150 mM NaCl, 3.4 mM EDTA, 0.001% NP-40, 30 C. The conditions noted are these: tags: His6 N-terminal (pET28a); label: 5' 32P. Put shortly:
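These values rest on relative association constants, computed from read-count changes of each RNA species versus the control reaction and normalised to the cognate motif. Reads came from free RNA recovered by 8% native PAGE after purified RbFox RRM (wild type or mutant) at increasing concentrations was equilibrated for 10 min in 50 µL with 1 nM of a 5′-radiolabelled pool with 7 randomized nucleotides and DNA-annealed flanks.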
For orientation: In EMSA bound probe runs differently from free probe, usually more slowly.
For the molecule B1, the binding signal was 0.0739 KA relative to UGCAUGU.
For B2, the binding signal is 0.0817 KA relative to UGCAUGU.
B3: the binding signal was 0.0912 KA relative to UGCAUGU.
Consider B4, for which the binding signal was 0.069 KA relative to UGCAUGU.
Turning to B5, the binding signal is 0.0816 KA relative to UGCAUGU.
Take B6: the binding signal is 0.0745 KA relative to UGCAUGU.
Regarding B7, the binding signal was 0.0605 KA relative to UGCAUGU.
With B8, the binding signal is 0.0512 KA relative to UGCAUGU.
Consider B9, for which the binding signal is 0.646 KA relative to UGCAUGU.
